Publication PMC8938449
Positions count from the first letter of the chain named. Results are given in words; binding and its absence hold for the method and conditions named. Binding seen in cells or lysates may run through a third protein. Some binding calls cover weakened binding; strength is not graded here. For part of these data: Tags and fused reporters may be left off the sequences shown.

Assays:
[1] = biological target: T1, Papi, endogenous (Bombyx mori (endogenous in BmN4)) (UniProt H9JD76); experiment: co-IP; Papi complex immunoprecipitated from normal (Control) BmN4 lysates that contained Flag-Par-1 (cytoplasmic and mitochondrial materials); blots with anti-Siwi and anti-Flag
T1 sequence: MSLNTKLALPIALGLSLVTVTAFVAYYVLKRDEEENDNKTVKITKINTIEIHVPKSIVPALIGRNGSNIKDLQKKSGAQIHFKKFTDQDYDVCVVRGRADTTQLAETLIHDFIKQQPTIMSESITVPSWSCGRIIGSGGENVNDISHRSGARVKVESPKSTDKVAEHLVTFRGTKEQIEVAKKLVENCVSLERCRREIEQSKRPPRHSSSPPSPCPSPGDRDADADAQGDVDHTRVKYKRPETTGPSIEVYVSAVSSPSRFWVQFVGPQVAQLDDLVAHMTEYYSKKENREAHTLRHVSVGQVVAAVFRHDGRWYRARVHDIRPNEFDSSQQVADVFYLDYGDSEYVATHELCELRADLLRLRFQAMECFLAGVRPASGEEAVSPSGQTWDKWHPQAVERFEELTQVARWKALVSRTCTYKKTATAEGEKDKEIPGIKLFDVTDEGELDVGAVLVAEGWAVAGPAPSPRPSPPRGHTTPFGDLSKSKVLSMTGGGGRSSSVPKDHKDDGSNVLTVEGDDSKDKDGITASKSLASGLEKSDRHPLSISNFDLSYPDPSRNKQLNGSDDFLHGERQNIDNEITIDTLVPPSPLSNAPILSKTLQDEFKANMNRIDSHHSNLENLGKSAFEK

[2] = biological target: T2, Flag-tagged Papi (Papi-Flag), wild type (Bombyx) (UniProt H9JD76); experiment: co-IP; Papi-Flag (WT or mutant) immunoprecipitated from BmN4 lysates with anti-Flag antibody on Dynabeads Protein G, 4 °C, 2 h; binding buffer with 150 mM potassium acetate and 0.5% Triton X-100; western blot for endogenous Siwi
T2 sequence: T1 sequence

[3] = biological target: T3, KH mutant of Papi (I69N/V142N) (Bombyx) (UniProt H9JD76); experiment: as above
T3 sequence: T1 sequence with I69N, V142N

[4] = biological target: T4, Papi-Flag S547A mutant (Bombyx) (UniProt H9JD76); experiment: as above
T4 sequence: T1 sequence with S547A

[5] = biological target: T5, Papi1-222 mutant (Papi1-222-Flag) (Bombyx) (UniProt H9JD76); experiment: as above
T5 sequence: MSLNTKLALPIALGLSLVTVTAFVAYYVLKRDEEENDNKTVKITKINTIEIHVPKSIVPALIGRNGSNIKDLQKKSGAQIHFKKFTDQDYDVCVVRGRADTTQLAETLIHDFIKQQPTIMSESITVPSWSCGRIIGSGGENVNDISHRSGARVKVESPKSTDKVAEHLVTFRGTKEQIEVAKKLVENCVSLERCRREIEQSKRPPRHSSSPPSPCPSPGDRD

[6] = biological target: T6, Papi1-480 mutant (Papi-1-480-3×Flag) (Bombyx) (UniProt H9JD76); experiment: as above
T6 sequence: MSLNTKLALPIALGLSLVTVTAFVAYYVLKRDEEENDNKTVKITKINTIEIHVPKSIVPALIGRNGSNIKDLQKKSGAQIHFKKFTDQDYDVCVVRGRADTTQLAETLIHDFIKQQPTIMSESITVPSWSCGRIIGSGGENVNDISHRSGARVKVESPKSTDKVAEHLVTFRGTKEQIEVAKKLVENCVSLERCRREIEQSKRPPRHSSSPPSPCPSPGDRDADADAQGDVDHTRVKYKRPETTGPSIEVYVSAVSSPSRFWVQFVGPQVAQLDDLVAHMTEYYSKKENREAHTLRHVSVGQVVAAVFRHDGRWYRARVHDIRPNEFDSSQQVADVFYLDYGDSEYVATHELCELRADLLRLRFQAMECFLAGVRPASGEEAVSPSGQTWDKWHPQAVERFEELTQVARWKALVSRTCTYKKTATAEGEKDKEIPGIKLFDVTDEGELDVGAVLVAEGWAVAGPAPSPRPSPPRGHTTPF

B1: Siwi, endogenous (protein, UniProt A8D8P8 1-899)
chain: MSEPRGRGRARGRAGRGGDGGGPAPRRPGEQAGPSQQSMPPGPRPQPPSGWGPQSSVPPVRAGVPTPTAQAGRASHRVTPTTHEHPGDIDVQQRMQKLELGPHSSGGGDASSVVGRGSRRGGGRVLPETISILRTRPEAVTSKKGTSGTPLDLLANYFTVETTPKWGLYQYHVDISPEEDSTGVRKALMRVHSKTLGGYLFDGTVLYTVNRLHPDPMELYSDRKTDNERMRILIKLTCEVSPGDYHYIQIFNIIIRKCFNLLKLQLMGRDYFDPEAKIDIPEFKLQIWPGYKTTINQYEDRLLLVTEIAHKVLRMDTVLQMLSEYAATKGNNYKKIFLEDVVGKIVMTDYNKRTYRVDDVAWNVSPKSTFKMRDENITYIEYYYKKYNLRIQDPGQPLLISRSKPREIRAGLPELIYLVPELCRQTGLSDEMRANFKLMRSLDVHTKIGPDKRIEKLNNFNRRFTSTPEVVEELATWSLKLSKELVKIKGRQLPPENIIQANNVKYPAGDTTEGWTRDMRSKHLLAIAQLNSWVVITPERQRRDTESFIDLIIKTGGGVGFRMRSPDLVVIRHDGPIEYANMCEEVIARKNPALILCVLARNYADRYEAIKKKCTVDRAVPTQVVCARNMSSKSAMSIATKVAIQINCKLGGSPWTVDIPLPSLMVVGYDVCHDTRSKEKSFGAFVATLDKQMTQYYSIVNAHTSGEELSSHMGFNIASAVKKFREKNGTYPARIFIYRDGVGDGQIPYVHSHEVAEIKKKLAEIYAGVEIKLAFIIVSKRINTRIFVQRGRSGENPRPGTVIDDVVTLPERYDFYLVSQNVREGTIAPTSYNVIEDTTGLNPDRIQRLTYKLTHLYFNCSSQVRVPSVCQYAHKLAFLAANSLHNQPHYSLNETLYFL
binding [1]: binds | binding [2]: binds | binding [3]: binds | binding [4]: binds | binding [5]: no binding | binding [6]: binds
